According to PMC4336329 (PLoS ONE, 2015):
The whole screen tested about 310,000 compounds, of which about 2,200 (0.71%) showed an effect of 50% or more. The effect is printed as a negative number. The list shows a part of the results.

These compounds were tested against human ether-à-go-go-related gene (hERG) potassium channel (human, UniProt Q12809) (assay: primary screen, population patch clamp on CHO cells stably expressing hERG).
human ether-à-go-go-related gene (hERG) potassium channel, sequence (Q12809 whole entry, looked up): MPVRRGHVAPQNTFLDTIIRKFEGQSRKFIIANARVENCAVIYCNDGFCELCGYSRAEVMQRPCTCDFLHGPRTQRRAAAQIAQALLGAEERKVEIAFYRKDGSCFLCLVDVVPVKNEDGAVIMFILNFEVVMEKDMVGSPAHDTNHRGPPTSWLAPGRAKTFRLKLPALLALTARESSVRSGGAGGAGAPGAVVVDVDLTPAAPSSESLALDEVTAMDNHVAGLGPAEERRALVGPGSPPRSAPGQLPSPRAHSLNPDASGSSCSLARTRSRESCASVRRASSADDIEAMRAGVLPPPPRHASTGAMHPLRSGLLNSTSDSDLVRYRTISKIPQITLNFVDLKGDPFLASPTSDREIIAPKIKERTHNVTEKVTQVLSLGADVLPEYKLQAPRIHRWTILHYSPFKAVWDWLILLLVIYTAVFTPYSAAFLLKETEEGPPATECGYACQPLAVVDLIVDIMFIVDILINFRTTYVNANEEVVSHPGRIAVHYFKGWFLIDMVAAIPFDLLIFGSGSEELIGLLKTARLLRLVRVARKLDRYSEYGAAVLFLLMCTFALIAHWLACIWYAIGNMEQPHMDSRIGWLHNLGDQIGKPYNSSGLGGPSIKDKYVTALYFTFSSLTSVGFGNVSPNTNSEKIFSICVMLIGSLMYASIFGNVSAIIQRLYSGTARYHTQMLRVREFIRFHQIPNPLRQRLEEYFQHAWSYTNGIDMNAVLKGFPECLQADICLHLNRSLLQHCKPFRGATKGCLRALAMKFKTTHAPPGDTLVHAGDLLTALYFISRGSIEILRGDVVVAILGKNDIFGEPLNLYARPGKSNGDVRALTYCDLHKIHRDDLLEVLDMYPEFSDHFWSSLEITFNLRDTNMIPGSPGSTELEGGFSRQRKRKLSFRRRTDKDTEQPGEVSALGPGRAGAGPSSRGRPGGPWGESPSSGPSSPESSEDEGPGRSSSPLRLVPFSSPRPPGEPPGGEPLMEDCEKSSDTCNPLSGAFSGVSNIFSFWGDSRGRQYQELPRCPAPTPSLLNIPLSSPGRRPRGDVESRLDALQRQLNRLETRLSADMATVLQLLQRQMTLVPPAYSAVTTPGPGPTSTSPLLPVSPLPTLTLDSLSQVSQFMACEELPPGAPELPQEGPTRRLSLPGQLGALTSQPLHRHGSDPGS

First: O=C(CN(C1CCCCC1)S(=O)(=O)c1ccccc1)NCc1cccnc1
Second: Cc1ccc(OCC(=O)NCc2cccnc2)cc1
The “hERG current change (%, negative = inhibition) at 1uM” value of the first is lower: 5.52% for the first, 9.97% for the second.

Compared with `COC(=O)c1sc2ccccc2c1-n1cccc1C(=O)C(=O)Nc1ccc(F)cc1`, `COC(=O)c1ccc(NC(=S)NC2c3ccccc3CC2O)cc1` (stereo not drawn) is higher in “hERG current change (%, negative = inhibition) at 1uM” value: -3.76% for the first, 14.3% for the second.

Going from `COc1ccc(Nc2nc(Cl)nc(NCc3ccco3)n2)cc1` to `COc1ccc(CNC(=O)c2cc3c(C)nc4ccccc4c3o2)c(OC)c1`, the “hERG current change (%, negative = inhibition) at 1uM” value falls from 14.4% to -1.16%.

First: CC(NC(=O)COC(=O)CCc1nc2ccccc2c(=O)[nH]1)c1ccccc1 (stereo not drawn)
Second: Cc1cc(=O)n(Cc2ccccc2)c2ccccc12
The “hERG current change (%, negative = inhibition) at 1uM” value of the first is lower: -20.2% for the first, 12.2% for the second.

Going from `Cc1ccc(-c2cnn3c(N4CCOCC4)cc(C)nc23)cc1` to `CCOc1ccc2ncc(S(=O)(=O)c3ccc(C)cc3)c(N3CCC4(CC3)OCCO4)c2c1`, the “hERG current change (%, negative = inhibition) at 1uM” value falls from 4.77% to 1.29%.

Compared with `CCCCC(=O)OCC(=O)Nc1ccc(SC(F)F)cc1`, `CCCS(=O)(=O)c1ccc(COC(=O)c2ccc(NC(C)=O)cc2)cc1` is higher in “hERG current change (%, negative = inhibition) at 1uM” value: 8.07% for the first, 16.9% for the second.

Going from `Cl.NCCn1c(-c2ccccc2)cc(C(=O)O)c1-c1ccccc1F` to `Cn1c(-c2ccccc2)c(/C=N/NC(=O)c2cccnc2)c2ccccc21`, the “hERG current change (%, negative = inhibition) at 1uM” value rises from 7.29% to 15.5%.

Going from `O=C(NCN1CCc2ccccc2C1)c1cnccn1` to `O=C(Cn1nnc2ccccc21)N/N=C\c1cccs1`, the “hERG current change (%, negative = inhibition) at 1uM” value rises from 8.04% to 12.9%.

Compared with `CCOc1ccc(C(=O)Nc2ccc(-c3nc4ccccc4[nH]3)cc2)cc1[N+](=O)[O-]`, `CCOc1ccc(N2C(=O)CC(SCc3nc4ccccc4[nH]3)C2=O)cc1` (stereo not drawn) is lower in “hERG current change (%, negative = inhibition) at 1uM” value: 11.2% for the first, -2.38% for the second.

First: COC(=O)c1cc2occc2n1Cc1nc(-c2ccccc2C)oc1C
Second: COc1ccc(-c2nc(CN3CCN(C(=O)c4ccco4)CC3)c(C)o2)cc1OC
The “hERG current change (%, negative = inhibition) at 1uM” value of the first is higher: 12.1% for the first, 8.24% for the second.

Compared with `CCOC(=O)c1c[nH]c2c(C)ccc(Cl)c2c1=O`, `CCOC(=O)c1cnc2c(cnn2C)c1Cl` is lower in “hERG current change (%, negative = inhibition) at 1uM” value: 11.5% for the first, 10.9% for the second.

Compared with `CC1CCN(S(=O)(=O)c2ccc(C(=O)Nc3nnc(-c4ccccn4)o3)cc2)CC1`, `CCCN(CC(=O)Nc1ccccc1C)C(=O)/C=C/c1ccc(S(=O)(=O)N2CCCCCC2)cc1` is lower in “hERG current change (%, negative = inhibition) at 1uM” value: 14.2% for the first, 5.68% for the second.

Going from `CC1(C)CC(=O)C(C=NCCN2CCN(CC(=O)Nc3ccc(F)cc3)CC2)=C(O)C1` to `O=C1CC(c2ccc(F)cc2)CC(O)=C1C=NCCN1CCN(C(=O)Nc2ccccc2)CC1` (stereo not drawn), the “hERG current change (%, negative = inhibition) at 1uM” value falls from 13.6% to -17.3%.

Compared with `c1ccc(CNc2nc3ccccc3n3cnnc23)nc1`, `Cc1ccccc1Cn1ccc(NC(=O)c2nn3cccnc3c2Cl)n1` is higher in “hERG current change (%, negative = inhibition) at 1uM” value: 6.63% for the first, 11.6% for the second.

Compared with `O=C1CN(C(=O)COc2ccc(Br)cc2F)c2ccccc2N1`, `O=C1CSC(c2ccccn2)N1c1ccccc1F` (stereo not drawn) is higher in “hERG current change (%, negative = inhibition) at 1uM” value: 10.9% for the first, 15.7% for the second.

Going from `CCOC(=O)c1[nH]c(C)c(C)c1C` to `CCOC(=O)Nc1ccc(S(=O)(=O)Nc2onc(C)c2C)cc1`, the “hERG current change (%, negative = inhibition) at 1uM” value falls from 15.3% to 1.85%.

Going from `CN1C(=O)c2ccc(NC(=O)c3c(F)c(F)c(F)c(F)c3F)cc2C1=O` to `O=C(Nc1nnc(-c2ccc(F)cc2)s1)c1c(F)cccc1Cl`, the “hERG current change (%, negative = inhibition) at 1uM” value rises from 7.61% to 14.9%.

Going from `COCCN1C=C2C(=O)C(C)(OC(=O)C3CCCC3)C(=O)C=C2C=C1c1ccsc1` (stereo not drawn) to `Cc1cc(C)c(S(=O)(=O)N2CCCCC2CCNC(=O)C(=O)NCc2cccnc2)c(C)c1` (stereo not drawn), the “hERG current change (%, negative = inhibition) at 1uM” value falls from 11.6% to -0.0941%.

First: O=C(O)CC/C(=C\c1cc([N+](=O)[O-])ccc1Cl)c1nc2ccccc2s1
Second: O=C(NCCNc1ccc([N+](=O)[O-])cc1Cl)c1ccccc1F
The “hERG current change (%, negative = inhibition) at 1uM” value of the first is lower: 6.83% for the first, 10.4% for the second.

Going from `CC1Cc2ccccc2N1C(=O)CSc1ncc(-c2ccc(F)cc2)n1C` (stereo not drawn) to `COn1c(=O)c(-c2ccc(F)cc2)[n+]([O-])c2ccccc21`, the “hERG current change (%, negative = inhibition) at 1uM” value rises from 5.9% to 17.1%.

Compared with `COc1ccc(Br)cc1CN1CCN(CCO)CC1`, `COc1ccccc1NC(=O)CCN1CCCCCC1.Cl` is higher in “hERG current change (%, negative = inhibition) at 1uM” value: 2.94% for the first, 3.7% for the second.

First: Cn1c(=O)cc(SCC(=O)N2CCC3(CC2)OCCO3)c2ccccc21
Second: CSCCC(NC(=O)c1ccccc1Cl)C(=O)N1CCCCCCC1 (stereo not drawn)
The “hERG current change (%, negative = inhibition) at 1uM” value of the first is higher: 12.8% for the first, 8.61% for the second.

Compared with `Cc1ccc2c(c1)=C/C(=C\c1c(O)[nH]c(=O)[nH]c1=O)C(=O)N=2`, `CC(C)c1ccc(-n2c(O)c(/C=N/NC(=O)c3ccncc3)c(=O)[nH]c2=O)cc1` is higher in “hERG current change (%, negative = inhibition) at 1uM” value: -0.505% for the first, 12.1% for the second.

Compared with `CCn1c(/C=C/N(C(C)=O)c2ccccc2)[n+](CC)c2ccc(Cl)cc21.[I-]`, `CC(C)(Oc1ccc(Cl)cc1)C(=O)N(Cc1ccccc1)c1ccccn1` is lower in “hERG current change (%, negative = inhibition) at 1uM” value: 5.77% for the first, 0.163% for the second.

First: Cc1c(-n2c(CN3C(=O)c4ccccc4C3=O)nc3ccccc3c2=O)c(=O)n(-c2ccccc2)n1C
Second: COc1ccc(/C=C2/C(=O)NC(=O)N(c3ccccc3)C2=O)cc1CN1C(=O)c2ccccc2C1=O
The “hERG current change (%, negative = inhibition) at 1uM” value of the first is lower: 11% for the first, 14.7% for the second.

Compared with `Cc1cc(C)cc(OCC(=O)N/N=C/c2ccncc2)c1`, `Cc1ccc(-c2cc(C(=O)NCCCn3ccnc3)c3ccccc3n2)s1` is lower in “hERG current change (%, negative = inhibition) at 1uM” value: 12.5% for the first, -41.4% for the second.

Going from `CCCCn1c(-c2csc3c2CCC(C)C3)n[nH]c1=S` (stereo not drawn) to `CCn1c(-c2csc3c2CCCC3)n[nH]c1=S`, the “hERG current change (%, negative = inhibition) at 1uM” value rises from 0.422% to 8.88%.

Compared with `CCCCSC(=S)NC1CCS(=O)(=O)C1` (stereo not drawn), `CCOc1ccc(CCNC(=O)C2CCN(S(=O)(=O)N3CC(C)CC(C)C3)CC2)cc1OCC` (stereo not drawn) is higher in “hERG current change (%, negative = inhibition) at 1uM” value: 3.86% for the first, 14.9% for the second.

First: CC(C)Oc1cccc(-c2cc(C(=O)N3CCN(S(C)(=O)=O)CC3)c3ccccc3n2)c1
Second: COc1cc(C(CC(=O)N2CCN(c3ccccc3)CC2)c2c(OC)cc(OC)c3ccc(=O)oc23)cc(OC)c1OC (stereo not drawn)
The “hERG current change (%, negative = inhibition) at 1uM” value of the first is higher: 6.9% for the first, -5.08% for the second.

Compared with `COc1ccccc1C(=O)CSc1n[nH]c(N)n1`, `CCOC(=O)c1ccccc1NC(=O)CC1SC(=NC)N(C)C1=O` (stereo not drawn) is lower in “hERG current change (%, negative = inhibition) at 1uM” value: 17.7% for the first, 12.6% for the second.

Compared with `COc1ccc(C(c2nnnn2CC2CCCO2)N2CCC(C(N)=O)CC2)cc1` (stereo not drawn), `COc1ccc(-n2nc(C(=O)NCC(=O)NCCCN3CCOCC3)c3ccccc3c2=O)cc1` is higher in “hERG current change (%, negative = inhibition) at 1uM” value: 11.6% for the first, 12.3% for the second.

Compared with `Cc1ccc(-c2ccc(CCC(=O)O)o2)cc1`, `Cc1ccccc1S(=O)(=O)Cc1ccc(C(=O)O)o1` is higher in “hERG current change (%, negative = inhibition) at 1uM” value: 11.9% for the first, 13.1% for the second.

First: Cc1cc(-c2n[nH]c(=S)n2/N=C/c2c[nH]c3ccccc23)n[nH]1
Second: OC(c1nc2ccc(F)cc2[nH]1)C(O)c1nc2ccc(F)cc2[nH]1 (stereo not drawn)
The “hERG current change (%, negative = inhibition) at 1uM” value of the first is lower: 2.02% for the first, 16.3% for the second.

Compared with `Cc1onc(-c2c(Cl)cccc2Cl)c1C(O)c1ccc(F)cc1` (stereo not drawn), `CC(C)(C)C1CCc2onc(C(=O)NCc3ccc(F)cc3)c2C1` (stereo not drawn) is higher in “hERG current change (%, negative = inhibition) at 1uM” value: 1.38% for the first, 3.6% for the second.

Going from `CSc1cnc2c(N)nc(N(C)C)nc2n1` to `CN(CC1COc2ccccc2O1)c1nc(-c2cccnc2)nc2ccccc12` (stereo not drawn), the “hERG current change (%, negative = inhibition) at 1uM” value falls from 13.5% to 3.34%.

First: CCOC(=O)[C@H]1[C@H]2COc3cc(OC)ccc3[C@@H]2N2C(=O)CN(Cc3ccc(C)cc3)C(=O)[C@@]12C
Second: COc1ccc(OC(=O)C(C)N2C(=O)c3ccccc3C2=O)cc1 (stereo not drawn)
The “hERG current change (%, negative = inhibition) at 1uM” value of the first is lower: 7.54% for the first, 7.76% for the second.

First: Cc1cc(NC(=O)CCC(=O)N(CC(=O)NCC2CCCO2)c2ccc3c(c2)OCCO3)no1 (stereo not drawn)
Second: O=C(NCC(=O)N(CC1CCCO1)C1(C(=O)NC2CCCCC2)CCCCC1)c1ccccc1 (stereo not drawn)
The “hERG current change (%, negative = inhibition) at 1uM” value of the first is higher: 6.95% for the first, 5.09% for the second.

Going from `CCCC[C@@H]1CNC(=O)C(=O)N1CCc1cccc2ccccc12` to `CCCCCOP(=O)(c1ccccc1)c1ccccc1`, the “hERG current change (%, negative = inhibition) at 1uM” value falls from 11.6% to -4.96%.

First: CC1CC(C)CN(C(=O)CCS(=O)(=O)c2ccc3c(c2)NC(=O)CS3)C1 (stereo not drawn)
Second: Cc1cccc2c1cnn2C(=O)CCC(=O)N1CC(C)CC(C)C1 (stereo not drawn)
The “hERG current change (%, negative = inhibition) at 1uM” value of the first is higher: 12.7% for the first, 3.11% for the second.

First: Cc1ccccc1C1c2[nH]c3ccccc3c2C[C@H]2C(=O)N(c3ccccc3C(=O)NCCCN3CCOCC3)C(=O)N12 (stereo partly drawn)
Second: O=C(NCCCN1CCOCC1)c1ccc2c(c1)N(Cc1c(F)cccc1Cl)C(=O)CS2
The “hERG current change (%, negative = inhibition) at 1uM” value of the first is higher: 4.68% for the first, -0.0804% for the second.

First: Cc1ccc(S(=O)(=O)N2c3ccccc3OCC2C(C)(C)C)cc1 (stereo not drawn)
Second: NC(=O)c1ccsc1NC(=O)CS(=O)(=O)c1ccc(Cl)cc1
The “hERG current change (%, negative = inhibition) at 1uM” value of the first is higher: 7.9% for the first, -10.8% for the second.

First: CC(=O)Nc1cccc2c1OCCO2
Second: O=C(O)CSc1ncnc2scc(-c3ccc(Br)cc3)c12
The “hERG current change (%, negative = inhibition) at 1uM” value of the first is higher: 6.16% for the first, -1.58% for the second.

First: O=C(CSc1nc(O)c(C2CCCCC2)c(=O)[nH]1)N1CCOCC1
Second: COC(=O)c1cc(NC(=O)c2c(Cl)nc3sccn23)cc(C(=O)OC)c1
The “hERG current change (%, negative = inhibition) at 1uM” value of the first is lower: 11.1% for the first, 17.3% for the second.

`CCOC(=O)c1cccc(-[n+]2c(-c3ccccc3)cc(-c3ccccc3)cc2-c2ccccc2)c1.[O-][Cl+3]([O-])([O-])[O-]` was tested, and the “hERG current change (%, negative = inhibition) at 1uM” value was -12.7%.
